# In the supplement of paper PMC11417369:
# ± gives the standard deviation of the averaged measurements. This is one part of the list.
# System: PfAP2-EXP AP2 domain (GST-tagged)
# Assay: gcPBM binding intensity (ln(normalized median fluorescence intensity)); higher = stronger DNA binding
# Procedure, shortened: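 Binding intensity values are the highest Masliner-normalised natural-log median intensity among replicate spots of either probe orientation. The binding step lasted 1 h in 1× PBS with 1% milk, 0.2 mg/ml BSA, 0.5% salmon testes DNA and 0.03% Triton X-100, using GST-tagged P. falciparum DNA-binding domains expressed in E. coli on an Agilent 4 × 180k array of primer-extended double-stranded 36-bp intergenic genomic probes plus negative controls. Alexa488 anti-GST antibody and a 488 nm scan detected bound protein.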
row,Sequence,gcPBM binding intensity (ln)
1,AACAAACAAACAAATATACACACTTTTGTATAAAGT [CACACA_site3509],8.49 ± 0.46
2,TAATCAATTCAATATTGTACGATATTTACCTTTAAA [XGTACX_site4678],8.89 ± 0.42
3,AAATGGGCTTATTTATGTACTTAAATATATCTACCC [XGTACX_site3823],8.55 ± 0.44
4,CCCACATAAAAAAATAAACACACATATGTATATATA [CACACA_site9040],8.97 ± 0.54
5,AACCTCGTGTAATATGCATGTTCCCTTCAAAGTTTT [TGCATGCA_site459],8.74 ± 0.42
6,TACATATATATATACACACATACATATATATACGCA [CACACA_site792],8.45 ± 0.34
7,AAAAAAATCTATATTACACACATATATACCTATATA [CACACA_site7464],8.14 ± 0.45
8,TACATTGTATACATATGTACACATATATATATATAT [XGTACX_site6174],10.1 ± 0.4
9,TATTTATGTTATAATTGTACAATAAACAAATTTTTT [XGTACX_site5306],8.39 ± 0.41
10,TATCTGTATTTGTATACACACAAATGTATTTATTTA [CACACA_site4830],8.57 ± 0.41
11,TACAATATTTCGAGCTTGCACTTTTATTAAGTAAAT,8.46 ± 0.36
12,TATACAGACAGACACACACACATATATAAATATGTA [CACACA_site6912],8.46 ± 0.42
13,ATTATTATTTTTAACTGTACATAGATATAGATATCC [XGTACX_site8714],8.53 ± 0.4
14,TAAGAAAAATATATATGTACACATATATATATATAT [XGTACX_site8542],9.97 ± 0.57
15,AACTTTTATACGGATACACACAAAAAAAAATAAAAA [CACACA_site6547],8.51 ± 0.6
16,TGTATGTTATATACAACACACAAAAAAAAACAAGTT [CACACA_site301],8.51 ± 0.55
17,TATTTAAAAGATGAAAGTACACATTTAATTACATTT [XGTACX_site3781],8.21 ± 0.38
18,ATGTGTATACTAAGAACACACAAGTTACTTGGTGTT [CACACA_site6864],8.43 ± 0.36
19,TATATTTAACATACTTTTTTTTTTTTTTTTTTTTTT [CACACA_negctrl_site938],8.995 ± 0.064
20,AGTCTTTTACATTGCACACACATTTCTTTCCTTTTG [CACACA_site2988],9.13 ± 0.53
21,AAAAAAAAAAAACATACACACAAGAACAAAATATGA [CACACA_site3002],8.82 ± 0.48
22,TACATATATCTATGTGTGCACTTATTTCCGGACAAA,9.18 ± 0.16
23,TAATTAGCATAATACACATGCATACATTTATATATA [TGCATGCA_site542],8.62 ± 0.32

row,Sequence,gcPBM binding intensity (ln)
1,ATTAAATGATTCATATGTACATAAATAAATAAATAT [XGTACX_site2249],8.79 ± 0.47
2,TATTAATATTTACACACATGCGCACACATAAATAAA [TGCATGCA_site609],8.88 ± 0.36
3,TTTCTTTTTAAAGTGTATTAAAATTGAATAAAAAGA [XGTACX_negctrl_site408],8.38 ± 0.34
4,TTTTTTTTTTTTGTCACACACCTTCATAAGAAAAAA [CACACA_site4779],8.7 ± 0.45
5,ATCATCACATAAGAAAATAGATAAAAAAAAAAAAAT [XGTACX_negctrl_site589],8.35 ± 0.5
6,ATGAAAAAACATAATTGTACAAAAGTTGGATTCGAT [XGTACX_site7732],9.51 ± 0.49
7,GTACAGATATTGTACATACACACCTATATAAATATC [CACACA_site5739],8.65 ± 0.48
8,TAAATCCGCAGGCACACACACATATTAAGAAAAAAA [CACACA_site6061],8.46 ± 0.63
9,GAACAAAATGATAGAAGTACAAATATTTATTTTGTT [XGTACX_site7146],8.78 ± 0.48
10,TGGGAACAATATATTTGTACTTAAATAAATAAAAAA [XGTACX_site6762],8.43 ± 0.44
11,AAAGAGAAACAAAATTGTACATTATATTGTAGACGT [XGTACX_site976],8.79 ± 0.4
12,TATATTTATAAGTGTACACATTATATAAATCCCTAT [CACACA_site6122],8.62 ± 0.18
13,AAAAAAAGGAAATTTACACACACATATAATATACAT [CACACA_site3297],8.73 ± 0.5
14,ATTTCCTTGAATGTTGCATGCTGTATTTTAATTAAA [TGCATGCA_site280],9.88 ± 0.43
15,AAAAAAAAAAAGTGCACACATAAAAATATGATCTAA [CACACA_site572],8.88 ± 0.13
16,TAAATTTTTCTAAGTGCATGTTAATTTTTCAATTTA [TGCATGCA_site906],8.56 ± 0.16
17,TAGATTATTATACTAGTGCAAATTATTTAAGAAAAA,8.44 ± 0.13
18,TTTAAAAAGTTATGAAGTACATATATATATATATAT [XGTACX_site2188],10.2 ± 0.29
19,ATATTATTTATAAAAGTGCAAAAATCACTTCTTTTA [GTGCAC_site9656],8.27 ± 0.18
20,AATATATCAAAAATGATGACATAAATATATTAATTT [GTGCAC_negctrl_site530],8.22 ± 0.45
21,TAATATCGTATATGAGTGCAATATTTTAGATTTTGA,8.295 ± 0.035
22,AAAAAAAGGTAAAATTGTACATACGCACAAAAATAT [XGTACX_site2887],8.73 ± 0.33
